# The whole screen tested about 110,000 compounds, of which about 230 (0.21%) showed an effect of 50% or more. This is one part of the list.
# Target: DPAP1 (Plasmodium falciparum, UniProt Q8IIJ9)
# Test: primary screen, percent inhibition; read by cleavage of a fluorogenic dipeptide substrate; higher = more effect of the substance
# Set-up: species or system P. falciparum D10 trophozoite lysates; single well
# 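Further: 30 min substrate incubation versus DMSO and 10 µM JCP410 controls.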
# Sequence of DPAP1 (Q8IIJ9 whole entry, looked up): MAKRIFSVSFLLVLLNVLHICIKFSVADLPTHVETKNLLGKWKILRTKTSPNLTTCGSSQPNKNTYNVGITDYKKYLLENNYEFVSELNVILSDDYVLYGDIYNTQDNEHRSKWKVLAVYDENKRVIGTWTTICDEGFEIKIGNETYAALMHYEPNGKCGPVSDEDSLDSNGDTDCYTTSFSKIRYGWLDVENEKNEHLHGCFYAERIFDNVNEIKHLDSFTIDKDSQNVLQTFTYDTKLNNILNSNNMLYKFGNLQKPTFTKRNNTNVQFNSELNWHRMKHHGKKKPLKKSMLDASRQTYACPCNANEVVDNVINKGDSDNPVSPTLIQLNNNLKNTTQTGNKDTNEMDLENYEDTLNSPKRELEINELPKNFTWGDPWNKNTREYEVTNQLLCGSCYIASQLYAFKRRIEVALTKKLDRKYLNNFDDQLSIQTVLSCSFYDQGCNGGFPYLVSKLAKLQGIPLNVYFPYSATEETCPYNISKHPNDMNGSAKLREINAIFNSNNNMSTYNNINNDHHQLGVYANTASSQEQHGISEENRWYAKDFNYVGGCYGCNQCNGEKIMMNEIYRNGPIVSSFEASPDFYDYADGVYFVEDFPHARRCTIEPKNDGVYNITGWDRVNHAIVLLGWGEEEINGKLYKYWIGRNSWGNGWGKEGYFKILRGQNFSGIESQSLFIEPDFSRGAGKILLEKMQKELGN
row,Structure (SMILES),% Inhibition @ 10 uM
1,Cc1ccc(NC(=O)Cn2ncc3c2-c2cc(C)ccc2OC3)nc1,-3.84%
2,CC(NC(=O)c1ccc(CS(=O)(=O)c2ccc(Cl)cc2)o1)c1ccccc1 (stereo not shown),-2.72%
3,CC1CCCC(N2CC(=O)N(CCc3ccccc3)C(c3ccc(F)cc3)C2=O)C1C (stereo not shown),1.27%
4,Cc1ccc(OCCCn2ccnc2)cc1C,-9.96%
5,CC(C)CC(C(=O)NCC#N)c1cccc(-c2ccc(S(=O)(=O)N3CCN(CCO)CC3)s2)c1 (stereo not shown),1.52%
6,COc1cc(C2C(C#N)=C(N)Oc3ccc4ccccc4c32)cc(OC)c1OC (stereo not shown),-7.55%
7,COc1ccc(C(=O)NCc2cn(C)nc2C)cc1,4.61%
8,COc1ccc(C(CC(=O)Nc2cccnc2)N2Cc3ccccc3C2=O)cc1 (stereo not shown),-8.48%
9,CCOC(=O)c1ccc(CNC(=O)[C@H](Cc2ccccc2)N2Cc3ccccc3C2=O)cc1,1.26%
10,CC(C)COc1ccccc1O,1.76%
11,CCn1cc(/C=C(\NC(=O)c2cc(OC)c(OC)c(OC)c2)C(=O)NC(C)C)c2ccccc21,-1.74%
12,O=C(Nc1ccc(F)c(Cl)c1)c1cccc(OC(F)F)c1,0.709%
13,O=C(Cn1c(=O)c2cccn2c2cccnc21)NCCCN1CCc2ccccc2C1,-2.97%
14,COCCCNc1nc2ccc(C)cc2n2nnnc12,-8.88%
15,CCOc1cc(/C=C2/S/C(=N/c3ccccc3)N(C)C2=O)ccc1OC,5.37%
16,CCOC(=O)C(C#N)=C1CCCCC1,1.42%
17,O=C(CN1C(=O)c2cccc3cccc1c23)Nc1ccc(S(=O)(=O)Nc2ccc(Cl)cc2)cc1,6.15%
18,CCCCCNC(=O)c1ccc2c(c1)nc(C)n2-c1cc(C)ccc1OC,-7.73%
19,O=C1c2oc3ccccc3c(=O)c2C(c2ccc(O)cc2)N1Cc1ccccc1Cl (stereo not shown),-1.33%
20,CCCCNc1nc(-c2ccccc2)nc(-n2ccnc2)n1,-6.28%
21,CCCn1c(CCC(=O)NC2CCN(C(=O)OCC)CC2)nc2cccnc21,-9.07%
22,Cc1sc2ccc3ccccc3c2[n+]1CCC(C)S(=O)(=O)O (stereo not shown),-1.93%
23,COc1ccccc1OCC(=O)Nc1ccccc1C(=O)NC(C)c1ccccc1 (stereo not shown),5.99%
24,Cc1sc2nc(SCc3ccc(C(=O)NCCO)cc3)nc(O)c2c1C,-0.339%
25,Nc1nc(/C=C/c2cccc([N+](=O)[O-])c2)cc(/C=C/c2cccc([N+](=O)[O-])c2)n1,-0.999%

row,Structure (SMILES),% Inhibition @ 10 uM
1,CCOc1ccc(C2C3=C(CC(C)(C)CC3=O)N(CCOC)C3=C2C(=O)CC(C)(C)C3)cc1OCC,2.33%
2,Cc1ccc(N2C(=O)NC(=O)/C(=C/Nc3ccccc3O)C2=O)cc1C,-3.03%
3,Cc1ccc(S(=O)(=O)N(CC(=O)NCc2cccnc2)Cc2ccc(Cl)c(Cl)c2)cc1,2.17%
4,Cc1ccc(C)c(Cn2c(C)c(CNCc3ccco3)c(C(=O)O)c2C)c1,-3.67%
5,CCC(=O)c1c(-c2ccccc2)nc2n(CCN(CC)CC)c3ccccc3n12,-3.14%
6,CCOC(=O)c1ccc(Nc2nc(NC)nc(OC(C(F)(F)F)C(F)(F)F)n2)cc1,1.7%
7,Cc1cc(C)c(S(=O)(=O)N(C)CC(=O)Nc2ccccc2F)c(C)c1,-2.65%
8,O=C(N/C(=C\c1ccccc1)C(=O)N1CCOCC1)c1ccc(Br)o1,-0.0959%
9,CC1CCN(c2c(NCc3ccc(C(=O)NC4CCCC(C)C4C)cc3)c(=O)c2=O)CC1 (stereo not shown),1.15%
10,O=S(=O)(Nc1ccc(F)cc1)c1ccc2c(c1)OCCO2,-2.6%
11,O=C(CN1C(=O)C2CCCN2C1=O)N1CCN(c2cccc(Cl)c2)CC1 (stereo not shown),-5.81%
12,CCOC(=O)c1ccc(-c2ccc(/C=C(\C#N)c3nn(CCO)c(N)c3C#N)o2)cc1,3.04%
13,COc1ccc(C(=O)CSc2nc(-c3ccc(Cl)cc3)c[nH]2)cc1,9.11%
14,COc1ccc(-c2noc(N3CCC(C(N)=O)CC3)n2)cc1OC,1.19%
15,COc1cc(OC)cc(C2=N/C(=C/c3ccccc3)C(=O)O2)c1,-6.82%
16,CCOc1ccccc1CNC(=O)CCn1c(=O)c2cccn2c2cccnc21,-7.94%
17,COc1ccc(C2CC(=O)C3=C(C2)NC(=O)CC3c2cccc(O)c2)cc1OC (stereo not shown),5.86%
18,Cc1nc2c(c(C)nn2-c2ccccc2)c(C)c1CCC(=O)NC(C)CCc1ccco1 (stereo not shown),-0.72%
19,CS(=O)(=O)N1CCN(c2ccc(NC(=O)c3cccc4ccccc34)cc2)CC1,-2.29%
20,COc1ccc(C(=O)/C=C/c2cccc([N+](=O)[O-])c2)c(OC)c1,-5.41%
21,CCOC(=O)c1oc2ccc3c(c2c1C)C(=O)CC(C)(C)O3,3.29%
22,CC1CCc2onc(C(=O)NCc3ccccn3)c2C1 (stereo not shown),-10.8%
23,CCOC(=O)C1=CN(Cc2ccc(F)cc2)C=C(C(=O)OCC)C1c1cc(OC)c(OC)c(OC)c1,-3.23%
24,CS(=O)(=O)N(CC(=O)Nc1ccc(Cl)c(C(F)(F)F)c1)C1CCCCC1,0.709%
25,CCc1ccc(-n2nnc(-c3nc(-c4ccc(Cl)cc4)no3)c2N)cc1,-7.18%

row,Structure (SMILES),% Inhibition @ 10 uM
1,O=C(CN1CCCCC1)N1Cc2ccccc2CCc2ccccc21,1.25%
2,O=C1CN(C(=O)COc2ccccc2)CCN1,-1.33%
3,OCC(CO)(CO)N(CC1CCCCC1)CC1CCCCC1,2.6%
4,COc1ccc(C(=O)OCCNC(=O)c2cccnc2)cc1,3.82%
5,Nc1cc(N)nc(SCC(=O)Nc2ccccc2C(F)(F)F)n1,-0.519%
6,CN1CCN(c2ccc(N3CCN(C(=O)NC4(C(=O)NCC#N)CCCCC4)CC3)cc2)CC1,-4.72%
7,Cn1c(=O)c2c(nc(CN3CCN(C(=O)c4ccco4)CC3)n2CC(=O)c2ccccc2)n(C)c1=O,0.102%
8,CC(C)c1ccc(S(=O)(=O)/N=C2/C=CC(=O)c3ccccc32)cc1,5.12%
9,Cc1cc(NCc2ccccc2)nc(-c2ccccc2O)n1,6.15%
10,O=C(O)Cn1c(=S)sc2ccccc21,0.035%
11,CCCCc1[nH]nc2c1C(c1ccc(OCCN3CCOCC3)c(OCC)c1)C(C#N)=C(N)O2 (stereo not shown),-2.9%
12,CC(=O)c1ccccc1OCC(O)Cn1c(C(C)C)nc2ccccc21 (stereo not shown),2.31%
13,C=CCOc1ccc(Br)cc1/C=C1/SC(=O)NC1=O,0.528%
14,O=c1oc2cc3occ(-c4ccccc4)c3cc2c2c1CCC2,-2.57%
15,O=C(Nc1nc2ccccc2s1)C1CCCN(c2ncnc3c2nc2n3CCCCC2)C1 (stereo not shown),4.61%
16,CC1(C)CC(NC(=O)Cn2nc(-c3ccc(Cl)cc3)c3ccccc3c2=O)CC(C)(C)N1,3.81%
17,Cc1nonc1OCC(C)(COc1nonc1C)NC(=O)c1ccc(Cl)cc1,-0.297%
18,COc1ccc(S(=O)(=O)N2CCCC2)cc1C(=O)N1CCOCC1,1.32%
19,CC(C)(C)C1CCc2c(sc3nnn(CC(=O)NCCc4ccccc4)c(=O)c23)C1 (stereo not shown),-4.54%
20,CCCOc1ccc(C(=O)C2=C(O)C(=O)N(Cc3cccnc3)C2c2ccccc2)cc1 (stereo not shown),-3.87%
21,COc1ccc(/C(O)=C(\C#N)c2nc3ccccc3n2C)cc1OC,28.7%
22,O=C1CC(c2ccccc2)NC(SCC(=O)Nc2cccc3ccccc23)=N1 (stereo not shown),-7.55%
23,Cc1ccc2c(Cl)c(C(=O)NCc3ccccn3)sc2c1,-0.413%
24,O=C(O)C1CCCCC1C(=O)N1CCN(c2ccc(Cl)cc2)CC1 (stereo not shown),-1.2%
25,O=C1CCCC2=C1C(c1ccccc1C(F)(F)F)Nc1ccc3ccccc3c12 (stereo not shown),-4.93%

row,Structure (SMILES),% Inhibition @ 10 uM
1,CCOc1ccc2nc(NC(=O)COc3ccccc3C)sc2c1,3.91%
2,Cn1c(N2C(=O)CC(Cc3ccc(Cl)cc3)C2=O)nc2ccccc21 (stereo not shown),18.2%
3,CC(Oc1ccccc1)C(=O)Nc1cccnc1Cl (stereo not shown),2.5%
4,O=C(NCC1CCCO1)c1ccc(-n2cnc3cccnc32)cc1 (stereo not shown),-1.3%
5,Cc1nnc(O)c2c(C)[nH]c(C)c12,4.79%
6,O=Cc1cn(-c2nc(-c3ccccc3)c3cc(Br)ccc3n2)nc1-c1ccccc1,2.86%
7,CCN(CC)CCCCOc1ccc(Cl)cc1,-1.62%
8,Cc1nc2sc3c(c2c2nnnn12)CCCC3,6.02%
9,Clc1ccc(CNCc2cccnc2)cc1,-0.771%
10,CC(=O)Nc1ccc(S(=O)(=O)Nc2ccccc2C(=O)NCCc2ccccc2)cc1,1.17%
11,COc1ccc(S(=O)(=O)NCCc2ccc(OC)c(OC)c2)cc1C,-1.89%
12,COc1ccc(-n2nnc(C(N)=O)c2C)cc1Cl,11.2%
13,Cc1nn(C)cc1C(=O)c1ccccc1,-4.43%
14,COc1ccc(OC)c(CN2CCc3ccccc3C2)c1,1.55%
15,CCCOc1c(Cl)cc(C(=O)N(Cc2sccc2C)C2CCS(=O)(=O)C2)cc1Cl (stereo not shown),-2.85%
16,COc1cccc(C2CC(=O)N3CN(Cc4ccco4)CSC3=C2C#N)c1OC (stereo not shown),18.7%
17,COc1ccc(Cl)cc1NC(=O)CSCc1cccc(Br)c1,-0.0217%
18,CC1=C(C(=O)Nc2ccccc2)C(c2ccco2)C(C#N)=C(SCC(=O)Nc2ccc(C)c(C)c2)N1 (stereo not shown),3.46%
19,CCC(=O)c1c(-c2ccc(Cl)cc2)nc2n(CCN3CCCCC3)c3ccccc3n12,-3.77%
20,COc1ccc(-c2cc(C(F)(F)F)n3ncc(C(=O)NCC4CCCO4)c3n2)cc1 (stereo not shown),-4.84%
21,O=C(O)C1C2C=CC(C2)C1C(=O)N1CCCC1 (stereo not shown),-9.11%
22,COCCNC(=S)N(CCc1c(C)[nH]c2ccc(C)cc12)Cc1cccs1,0.813%
